# Reference: the supplement of paper PMC3334620
# Over roughly 33,000 sequences, “E-score (-0.5 to 0.5)” has its median near -0.054; the highest 2% begin near 0.39. Some of the results follow.
# Biological target: Ylr278c (UniProt Q05854)
# Assay: PBM E-score (8-mer binding enrichment) (E-score (-0.5 to 0.5)); higher = stronger / more preferred TF binding; most listed sequences are background and not binding sites
# Settings: protein concentration: 200 nM; construct: GST-DNA-binding domain
# Procedure: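 Universal 'all 10-mer' protein binding microarrays (Agilent AMADID 015681) probed with GST-tagged S. cerevisiae TFs (full-length or DBD) made by in vitro transcription/translation (PURExpress), about 100-200 nM. Bound TF was detected with fluorescent anti-GST. Each ungapped 8-mer (which stands for itself and its reverse complement) is scored by the PBM enrichment score (E-score), a modified Wilcoxon-Mann-Whitney statistic from -0.5 to +0.5, computed with the Universal PBM Analysis Suite. Scale: above 0.35 generally sequence-specific binding.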
row,Sequence,PBM E-score
1,CTCCTTCC,-0.0757
2,ACGCAGAT,0.218
3,CAAGATTC,0.0907
4,GAATCAGA,-0.00635
5,AGATAGAC,-0.185
6,ATATATGC,0.0523
7,ACGCTTGG,-0.238
8,CTGCTTGA,-0.294
9,AGCTAACT,0.00346
10,ACAGTATC,-0.228
11,AGAAGGCG,-0.15
12,CTGGATCC,0.162
13,GGGTGGGA,0.16
14,AATACGGT,-0.0632
15,GAACTCTC,0.0657
16,GATCCTTA,-0.268
17,ACACGCAT,-0.0465
18,CACCAAAC,-0.119
19,ATTACTTG,-0.244
20,ATGCGCTG,-0.0507
21,CCCGTGGA,0.0749
22,CCCCCCAA,-0.204
23,GAGGAACA,-0.0163
24,CCGCCGTA,0.354
25,CTGTGACC,-0.0578

row,Sequence,PBM E-score
1,GCGCCTAC,0.0176
2,AACCAGGA,0.00985
3,TAGCAAAA,0.0592
4,GTGACCAC,0.00848
5,CCTAGACC,-0.209
6,CTACCATA,-0.196
7,AAAAGCTC,-0.0262
8,CGTGTAAA,-0.0849
9,CCTTGGTC,-0.221
10,CTATAGAG,-0.103
11,CGCCACGC,0.0477
12,TCCCTGAA,-0.217
13,CTAGTCTA,-0.232
14,AAATTCGT,0.0199
15,AACTCTAT,0.0647
16,CCCGGTAA,0.309
17,ACTACTAA,-0.00405
18,AATCTTTA,-0.0903
19,ACCAGTTG,-0.202
20,CGATTGCC,0.157
21,CGCCGCAA,0.343
22,AGTGCACG,-0.101
23,AGGTTTTA,-0.0246
24,CAATATGC,0.0153
25,ATCGCGTC,-0.0429

row,Sequence,PBM E-score
1,ACTTGACT,-0.146
2,CGCTCCTA,-0.00469
3,AGCAAAAG,-0.275
4,CCTAGAAA,-0.0836
5,CTCGATAC,-0.0817
6,AAGTGTAT,-0.261
7,CCTATCAA,-0.099
8,CAGCGGCG,0.225
9,TACTTAAA,-0.0424
10,CGCAGGAA,0.057
11,AACGCTGA,-0.129
12,TGTAAAAA,-0.125
13,CAGGATGA,-0.276
14,AACTAGCT,-0.285
15,ATGCGTTC,0.025
16,ATCGGAGA,0.455
17,GAACGGCC,0.15
18,AGTGCTAG,-0.0906
19,GTGAACAA,0.0369
20,AATCTGTC,0.0271
21,ACGATACA,-0.235
22,ACTACCCC,0.0399
23,AAACAGGG,-0.167
24,ACCCCGAA,0.392
25,AAGTCCTA,0.0365

row,Sequence,PBM E-score
1,ACGCTTGC,-0.164
2,AAAGACGC,-0.0982
3,TATCTCCA,0.0459
4,CTATACAC,-0.2
5,CTACTTGC,-0.0122
6,AGAGGACG,-0.121
7,CCTGCCAA,-0.0215
8,GGAGTAAA,0.238
9,ATCGCGCC,0.18
10,AACAGCTT,-0.0746
11,GGTTAGGA,-0.193
12,AACCATAT,-0.0256
13,CGGAGCGA,0.415
14,CAAGTGGC,-0.0625
15,GCCAAGAA,0.00882
16,TCTCAAAA,-0.0269
17,ATAAGCTG,-0.184
18,CACCTGAC,-0.27
19,ATTCGGGG,0.345
20,CGGCTCCC,0.136
21,CGCGCTTC,0.146
22,ACTCAGAG,-0.119
23,AGACTCAT,-0.202
24,TAGACATA,-0.164
25,CGCACAAA,0.192

row,Sequence,PBM E-score
1,ACGAACCT,0.00357
2,ATTCGGAA,0.36
3,CTAGTATA,-0.0386
4,AGGGTACT,-0.265
5,ATCCAGCG,0.134
6,GCACCGTA,0.0145
7,AATGATGT,0.00414
8,GAAGCCTC,-0.113
9,TGAGTCCA,-0.134
10,AGTTCCGG,0.433
11,AACTACAA,0.065
12,GCCTTACC,-0.147
13,GGTGCGGA,0.284
14,ATGTAACC,0.0132
15,CAGACAAC,-0.0844
16,ACACGGAG,0.419
17,CTCTTTCC,0.152
18,CCTACTGA,-0.128
19,ACTCGGTG,0.0389
20,ATAGCCTC,0.1
21,AAACTTGG,-0.0263
22,TGTCAACA,-0.0997
23,GCCGGATA,0.4
24,GGGTTTCA,0.213
25,GGTCCCGA,0.205

row,Sequence,PBM E-score
1,CGCGCTAC,0.123
2,CAGCTTTA,-0.0383
3,AGCGCCTA,0.0564
4,CGGGTGTC,0.113
5,ACTAGCCA,-0.292
6,AAGACTCC,-0.044
7,TAAGCCCA,-0.159
8,AACGTCCC,-0.12
9,CGATCGCC,0.251
10,CCAGCTAC,-0.241
11,GAAGTACA,-0.0211
12,AAAGGAGC,-0.055
13,CACGCTAC,-0.207
14,GGGTCGGA,0.374
15,ACTGGTGG,-0.255
16,GAACCTCA,-0.126
17,GTGGACAA,0.124
18,CGAGTGTC,-0.00398
19,AAGGGTCC,0.216
20,CTATTACA,-0.0704
21,GGACACCC,0.0133
22,GCAAGCGC,0.129
23,AAATGAGT,0.101
24,ACGAAAGT,-0.0616
25,AACCAATC,0.118

row,Sequence,PBM E-score
1,AAGCGAGC,0.112
2,TGGACCCA,-0.111
3,ATACATAG,-0.217
4,CATGACAG,-0.208
5,AACTTCAA,-0.155
6,ATAAAACC,0.0587
7,CTACGCGA,-0.178
8,ATAAGAGA,0.15
9,GTGAAATA,-0.135
10,GAACCTGA,-0.161
11,CAGCTTAA,-0.138
12,GGACAACA,0.0824
13,ACCTTCGA,-0.146
14,ACACGACT,-0.185
15,CATCGCAA,-0.28
16,TCACGGGA,0.139
17,AGATACAT,-0.223
18,TGACAAAA,-0.115
19,TGCGCCCA,-0.123
20,GGAAAGTA,0.0736
21,CCCGTCAG,0.0893
22,AACTGTGA,-0.122
